From the supplement of paper PMC10126150
Values marked as one replicate rest on one cluster of the flow cell; about a third of the high ones do not repeat.
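Further: ATP exposure 15 min at 22 °C before imaging.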

Each sequence was assayed on ATP (assay: switch fluorescence ratio, 500 uM ATP over buffer (Cy3 cluster intensity, sum of 5 cycles each) (fold (ratio)); higher = stronger signal-on switching upon ATP binding; sequences stand for … in TCGTCGGCAGCGTCAGATGTGTATAAGAGACAGTTTTTTTTTTTTTTTTTTTTTTTTT…TC). Conditions: aptamer strand: ATP DNA aptamer (quencher-CACCTGGGGGAGTATTGCGGAGGAAGG + anchor), 100 nM annealed; ATP concentration: 500 uM; one replicate.
How it was run: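 Between each of five buffer/ATP cycles, the flow-cell was stripped with NaOH and re-annealed. Each cycle imaged Cy3-labelled switching-strand clusters, annealed to 100 nM quencher-labelled ATP aptamer on a modified Illumina MiSeq flow-cell, first in selection buffer and then after 15 min with 500 uM ATP at 22 °C. The fluorescence ratio is summed target-cycle over summed buffer-cycle Cy3 intensity per cluster, averaged per switch-domain sequence, with clusters outside 100-1000 RFU excluded.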
AGAGCGGT showed a switch fluorescence ratio of 1.24. AGAGCGTAGT gave a switch fluorescence ratio of 0.986. With AGAGCGTTAA the switch fluorescence ratio was 1.09. Sequence AGAGCTGTTT has a switch fluorescence ratio of 0.992. AGAGCTTTTT was tested, and the switch fluorescence ratio was 0.99. In the case of AGAGGAATTA, the switch fluorescence ratio is reported as 0.99. AGAGGACGAA showed a switch fluorescence ratio of 0.996. Sequence AGAGGATACG has a switch fluorescence ratio of 1.05. Work on AGAGGATGGA yielded a switch fluorescence ratio of 0.991. AGAGGCACCA was tested, and the switch fluorescence ratio was 0.985. AGAGGCCGTA showed a switch fluorescence ratio of 1.12. Sequence AGAGGCGCTG has a switch fluorescence ratio of 0.992. AGAGGCGTGC showed a switch fluorescence ratio of 1.01. AGAGGGAAGC gave a switch fluorescence ratio of 1.09. AGAGGGCGCT gave a switch fluorescence ratio of 0.93. Sequence AGAGGGTA has a switch fluorescence ratio of 0.983. AGAGGTAACA showed a switch fluorescence ratio of 0.973. AGAGTATAAC showed a switch fluorescence ratio of 1.02. Sequence AGAGTATACT has a switch fluorescence ratio of 0.969. In the case of AGAGTCAATC, the switch fluorescence ratio is reported as 1.04. AGAGTCAGCT was tested, and the switch fluorescence ratio was 0.956. Sequence AGAGTCATCT has a switch fluorescence ratio of 0.979. Sequence AGAGTCGGGG has a switch fluorescence ratio of 0.986. With AGAGTCTGAA the switch fluorescence ratio was 0.975. AGAGTCTTTA showed a switch fluorescence ratio of 0.98. Sequence AGAGTGTAGA has a switch fluorescence ratio of 1.03. Work on AGAGTGTCTT yielded a switch fluorescence ratio of 0.995. AGAGTTCGGA gave a switch fluorescence ratio of 0.99. For AGATAACTGG, the switch fluorescence ratio was 1.05. AGATACAC gave a switch fluorescence ratio of 1.05. For AGATACATAG, the switch fluorescence ratio was 1.04. For AGATACGGGT, the switch fluorescence ratio was 1.03. AGATACGTGA showed a switch fluorescence ratio of 0.988. For AGATACTATT, the switch fluorescence ratio was 1.03. In the case of AGATAGCCAG, the switch fluorescence ratio is reported as 0.983. In the case of AGATAGGACC, the switch fluorescence ratio is reported as 1.01. With AGATAGGCGA the switch fluorescence ratio was 0.983. AGATAGTATG gave a switch fluorescence ratio of 1.02. Sequence AGATATTTAA has a switch fluorescence ratio of 1. Work on AGATCATTC yielded a switch fluorescence ratio of 0.969. With AGATCCAAGT the switch fluorescence ratio was 1. In the case of AGATCCAGAG, the switch fluorescence ratio is reported as 0.999. With AGATCCGCGG the switch fluorescence ratio was 0.997. For AGATCCGGAA, the switch fluorescence ratio was 1.11. Sequence AGATCGGTCT has a switch fluorescence ratio of 0.954. With AGATCGTAAA the switch fluorescence ratio was 1.01. AGATCTGCTC showed a switch fluorescence ratio of 0.963. AGATCTGGTT showed a switch fluorescence ratio of 0.992. AGATGACAGT showed a switch fluorescence ratio of 1.04. Sequence AGATGATTGA has a switch fluorescence ratio of 1.01. With AGATGCCGGG the switch fluorescence ratio was 0.949. AGATGCGTGT showed a switch fluorescence ratio of 0.999. Work on AGATGGAGGG yielded a switch fluorescence ratio of 0.968. Sequence AGATGGGTAA has a switch fluorescence ratio of 1.01. AGATGGTCCG was tested, and the switch fluorescence ratio was 1.02. For AGATGTAGAA, the switch fluorescence ratio was 0.982. Sequence AGATGTGACT has a switch fluorescence ratio of 0.983. For AGATGTGAGG, the switch fluorescence ratio was 1.03. Sequence AGATGTTGTG has a switch fluorescence ratio of 0.958. AGATTAACAC was tested, and the switch fluorescence ratio was 0.998. Work on AGATTAGAAC yielded a switch fluorescence ratio of 0.948. AGATTAGTCG gave a switch fluorescence ratio of 0.93. In the case of AGATTCATCG, the switch fluorescence ratio is reported as 1.03. AGATTCCTTC gave a switch fluorescence ratio of 1.05. AGATTGGTAG showed a switch fluorescence ratio of 0.971. AGATTGTCGA showed a switch fluorescence ratio of 1. In the case of AGATTTCACA, the switch fluorescence ratio is reported as 0.987. With AGATTTCGAG the switch fluorescence ratio was 0.992. Work on AGATTTTTAG yielded a switch fluorescence ratio of 0.967. AGCAAATCCA was tested, and the switch fluorescence ratio was 1.06. AGCAAATCCT showed a switch fluorescence ratio of 1.15. AGCAATGTGG showed a switch fluorescence ratio of 1.2. Work on AGCACACCTA yielded a switch fluorescence ratio of 1.08. AGCACATGCT was tested, and the switch fluorescence ratio was 1.11. Work on AGCACCGTTT yielded a switch fluorescence ratio of 0.986. For AGCACGCCCA, the switch fluorescence ratio was 1.24. With AGCACTCTTC the switch fluorescence ratio was 1.04. For AGCACTTCCC, the switch fluorescence ratio was 1.76. In the case of AGCACTTTCC, the switch fluorescence ratio is reported as 1.74. Sequence AGCAGATCTC has a switch fluorescence ratio of 1.24. In the case of AGCAGCATCT, the switch fluorescence ratio is reported as 1.03. In the case of AGCAGCCA, the switch fluorescence ratio is reported as 1.03. Sequence AGCAGCTGAG has a switch fluorescence ratio of 0.968. With AGCAGGCTG the switch fluorescence ratio was 0.974. Sequence AGCAGTTTGT has a switch fluorescence ratio of 0.988.
